Experimental data reported in paper PMC10185812.
No constants are given. Whether binding was seen depends on the method and setting. For some assays here: Binding seen in cells or lysates may run through a third protein. Some entries that bind do so weakly or less than the wild type.

Columns and labels:
[1] = biological target: T1, NEK1 (endogenous) (human (endogenous in ARPE-19, HeLa, HEK293, U2-O-S)) (UniProt Q96PY6); assay: SEC; total extracts of ARPE-19 cells (parental, NEK1-KO, C21ORF2-KO) on a Superose 6 Increase 10/300 column; fractions immunoblotted
T1 sequence: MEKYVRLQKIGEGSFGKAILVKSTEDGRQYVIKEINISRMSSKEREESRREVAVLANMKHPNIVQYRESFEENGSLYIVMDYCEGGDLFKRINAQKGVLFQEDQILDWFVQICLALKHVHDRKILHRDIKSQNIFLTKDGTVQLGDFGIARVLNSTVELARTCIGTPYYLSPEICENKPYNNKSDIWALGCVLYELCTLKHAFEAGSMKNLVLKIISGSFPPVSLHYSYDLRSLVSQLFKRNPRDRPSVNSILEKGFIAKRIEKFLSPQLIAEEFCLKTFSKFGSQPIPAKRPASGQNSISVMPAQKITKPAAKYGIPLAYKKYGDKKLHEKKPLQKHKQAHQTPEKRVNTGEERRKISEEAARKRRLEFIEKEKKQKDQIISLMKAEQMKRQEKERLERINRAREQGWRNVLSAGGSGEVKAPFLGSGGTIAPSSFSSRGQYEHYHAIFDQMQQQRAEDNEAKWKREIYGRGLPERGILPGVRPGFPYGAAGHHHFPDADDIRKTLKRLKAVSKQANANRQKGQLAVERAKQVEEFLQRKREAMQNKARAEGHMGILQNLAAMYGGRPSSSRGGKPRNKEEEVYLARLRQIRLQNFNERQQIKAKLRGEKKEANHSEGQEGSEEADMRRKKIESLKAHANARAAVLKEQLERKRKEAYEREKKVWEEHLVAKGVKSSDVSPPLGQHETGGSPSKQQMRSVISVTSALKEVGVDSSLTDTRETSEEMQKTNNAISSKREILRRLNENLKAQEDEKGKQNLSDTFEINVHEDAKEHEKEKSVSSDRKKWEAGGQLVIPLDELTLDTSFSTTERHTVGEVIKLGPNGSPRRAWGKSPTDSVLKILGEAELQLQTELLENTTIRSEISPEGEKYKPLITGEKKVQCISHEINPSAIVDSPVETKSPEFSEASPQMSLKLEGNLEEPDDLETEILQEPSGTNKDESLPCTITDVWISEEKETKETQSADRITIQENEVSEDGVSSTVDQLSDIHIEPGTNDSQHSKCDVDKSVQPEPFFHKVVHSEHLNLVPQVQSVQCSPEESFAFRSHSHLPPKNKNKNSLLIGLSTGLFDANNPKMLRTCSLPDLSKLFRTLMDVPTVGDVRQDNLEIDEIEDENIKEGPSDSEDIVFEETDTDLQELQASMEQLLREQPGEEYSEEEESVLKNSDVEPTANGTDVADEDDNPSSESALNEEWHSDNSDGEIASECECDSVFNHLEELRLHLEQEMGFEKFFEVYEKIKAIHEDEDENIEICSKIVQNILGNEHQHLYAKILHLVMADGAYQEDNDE

[2] = biological target: T2, NEK1 D1277A (lentiviral, CMV promoter, in NEK1-KO cells) (human) (UniProt Q96PY6); assay: co-IP; NEK1-KO or C21ORF2-KO ARPE-19 cells transduced with lentivirus for WT or mutated NEK1 (CMV promoter) or C21ORF2 (UbC promoter); immunoprecipitation with antibodies against NEK1 or C21ORF2; immunoblotting
T2 sequence: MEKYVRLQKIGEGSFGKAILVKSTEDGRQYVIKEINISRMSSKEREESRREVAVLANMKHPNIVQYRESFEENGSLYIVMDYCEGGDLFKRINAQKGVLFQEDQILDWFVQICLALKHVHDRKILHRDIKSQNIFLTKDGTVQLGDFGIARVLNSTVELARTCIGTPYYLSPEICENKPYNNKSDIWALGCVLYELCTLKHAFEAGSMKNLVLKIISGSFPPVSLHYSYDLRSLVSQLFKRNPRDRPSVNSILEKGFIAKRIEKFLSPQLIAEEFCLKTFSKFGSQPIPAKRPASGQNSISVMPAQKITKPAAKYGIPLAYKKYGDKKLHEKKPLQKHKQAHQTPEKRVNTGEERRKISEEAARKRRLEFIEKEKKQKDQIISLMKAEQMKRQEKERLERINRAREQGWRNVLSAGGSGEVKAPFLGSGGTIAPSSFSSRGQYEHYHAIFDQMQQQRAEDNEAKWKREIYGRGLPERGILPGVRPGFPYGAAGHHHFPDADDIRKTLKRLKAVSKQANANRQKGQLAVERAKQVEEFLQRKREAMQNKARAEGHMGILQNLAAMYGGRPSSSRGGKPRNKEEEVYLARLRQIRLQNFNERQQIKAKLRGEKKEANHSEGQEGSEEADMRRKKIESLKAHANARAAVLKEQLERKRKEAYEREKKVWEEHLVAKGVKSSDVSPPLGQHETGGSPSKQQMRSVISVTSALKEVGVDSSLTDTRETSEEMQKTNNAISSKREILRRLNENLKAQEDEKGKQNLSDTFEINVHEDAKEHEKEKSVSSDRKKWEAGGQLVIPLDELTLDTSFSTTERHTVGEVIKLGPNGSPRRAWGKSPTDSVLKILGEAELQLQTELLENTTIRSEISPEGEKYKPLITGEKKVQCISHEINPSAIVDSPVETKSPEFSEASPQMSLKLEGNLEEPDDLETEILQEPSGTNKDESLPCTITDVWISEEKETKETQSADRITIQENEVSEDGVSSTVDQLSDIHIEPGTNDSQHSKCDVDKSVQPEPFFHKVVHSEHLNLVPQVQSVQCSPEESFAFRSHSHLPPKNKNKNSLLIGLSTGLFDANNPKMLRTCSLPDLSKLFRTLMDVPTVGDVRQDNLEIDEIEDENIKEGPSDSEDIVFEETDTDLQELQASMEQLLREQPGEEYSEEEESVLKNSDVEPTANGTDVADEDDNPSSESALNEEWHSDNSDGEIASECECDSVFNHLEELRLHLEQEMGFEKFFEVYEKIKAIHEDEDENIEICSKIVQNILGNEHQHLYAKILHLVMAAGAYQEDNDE

[3] = biological target: T1, NEK1 (endogenous) (human (endogenous in ARPE-19, HeLa, HEK293, U2-O-S)); assay: co-IP; pooled gel filtration fractions of ARPE-19 extract; three rounds of immunodepletion with antibodies against NEK1 or C21ORF2 or sheep IgG; 4°C; washes with 50 mM Tris pH 7.4, 500 mM NaCl, 1% Triton X-100; beads and supernatants immunoblotted
[4] = biological target: T1, NEK1 (endogenous) (human (endogenous in ARPE-19, HeLa, HEK293, U2-O-S)); assay: co-IP; HeLa, HEK293 and U2-O-S cell lysates; immunoprecipitation with in-house sheep anti-C21ORF2 or anti-NEK1 antibodies (sheep IgG beads as control); immunoblotting
[5] = biological target: T1, NEK1 (endogenous) (human (endogenous in ARPE-19, HeLa, HEK293, U2-O-S)); assay: co-IP; ARPE-19 cell extracts; immunoprecipitation with in-house sheep antibodies against NEK1 or C21ORF2 (sheep IgG as control); 4°C; washes with 50 mM Tris pH 7.4, 500 mM NaCl, 1% Triton X-100; immunoblotting

- binding [1]: binds
- binding [2]: no binding
- binding [3]: binds
- binding [4]: binds
- binding [5]: binds
B1: C21ORF2 (endogenous) (protein, UniProt O43822-1 1-256)
chain: MKLTRKMVLTRAKASELHSVRKLNCWGSRLTDISICQEMPSLEVITLSVNSISTLEPVSRCQRLSELYLRRNRIPSLAELFYLKGLPRLRVLWLAENPCCGTSPHRYRMTVLRTLPRLQKLDNQAVTEEELSRALSEGEEITAAPEREGTGHGGPKLCCTLSSLSSAAETGRDPLDSEEEATSGAQDERGLKPPSRGQFPSLSARDASSSHRGRNVLTAILLLLRELDAEGLEAVQQTVGSRLQALRGEEVQEHAE
